Results on 22 molecules are retold here after paper PMC12136788.

The other results are listed elsewhere or left out.

The chains are these.
B1: 53430807_53432045_2282_CDS_ENSG00000072501_ENST00000322213|human|control|control (ssRNA)
RNA: GGGAGUUCUACAGUCCGACGAUCCUCCAGCUUGGAUUUUUCCUGCAGAUUCAGGGCUAGAUGUCGUGUCUUGGUCUGUUCUAGGUCACUCUGGGAGUACUUGAGCCGCAUCUGCAGUCCAUGGGCCUGAGACUGCACCUGACGCAACAGAGGAUUGAGCAUCA
B2: chr8:95500983:95500984:-_ENSG00000164944_ENST00000437199|hu_hu|hu_hu_hu_mus_True|18_108 (ssRNA)
RNA: GGGAGUUCUACAGUCCGACGAUCAGAAGGAUUUUUACGAGUAAAGGACCGUACAUGACGGCCUCUACCACUGCCUCCACUAACAAACUUUCCUCUCGAGCCUCCACUGCCGCUAUUUUGCACUAGCCAGGACGGUCCCAGGCCCAACAGAGGAUUGAGCAUCA
B3: chr1:58468927:58468928:-_ENSMUSG00000026034_ENSMUST00000148330|mus_mus|mus_mus_mus_hu_False|8_98 (ssRNA)
RNA: GGGAGUUCUACAGUCCGACGAUCAAUUACUGAAAAAUGAAAGAUGUACCUUAGCUAUGUACUUAAUGAACCAAAUUACCCAAACAAAAUAAACAUGGCAAUAUAAAAAUGUUAAGAAUUUACAAAGAUUAAAAGCUUAACUUACAACAGAGGAUUGAGCAUCA
B4: chr11:97543600:97543601:+_ENSMUSG00000038437_ENSMUST00000044730|mus_mus|FALSE|FALSE (ssRNA)
RNA: GGGAGUUCUACAGUCCGACGAUCUUGGCUGCCCCAGGUCCAGAGGAAGAAAUGACAGAUAGACAGACAGGUUAAACAGACUAACCAUCUCUCUCUUUUUCUCUCACUCACACACACACUCACACACUCACAAUCUGUGGAGUCCAACAGAGGAUUGAGCAUCA
B5: chr2:90749655:90749656:+_ENSMUSG00000005505_ENSMUST00000090682|mus_mus|FALSE|FALSE (ssRNA)
RNA: GGGAGUUCUACAGUCCGACGAUCCACGUGGCACUUGUCAGUUUCUGUGUCAAAGCACUGGAUCAGUCGGGAAGGUUUGGUAAAGAAGUCUAGAUCAUUCUCCUCACCCCCCAGUAAGUAGAUGAUUCCAUUCAGGUUGGCACCCAACAGAGGAUUGAGCAUCA
B6: chr6:44221449:44221450:+_ENSG00000096384_ENST00000371646|hu_hu|FALSE|FALSE (ssRNA)
RNA: GGGAGUUCUACAGUCCGACGAUCAAUGGGGCUUGACACCCUUAGUUUACUGCCUUCAACACAAGGACAGGAGAGGGAAAAAAACACUAGACACCAGCAGGGGGAGCCAGGUGGGACAGGGGCACUCGAGGCUGCAGUGGGAGCCAACAGAGGAUUGAGCAUCA
B7: chr19:8913615:8913616:-_ENSMUSG00000071658_ENSMUST00000096259|mus_hu|mus_mus_mus_hu_False|18_68 (ssRNA)
RNA: GGGAGUUCUACAGUCCGACGAUCAGGGUACCAAAACCUUCUGCCUGAAAUGGGUGCCCCACCCAGUCAGGACUUGGAGCUGAAAGUAUCUGAUGCAGAAGCAGUGACUAUACGAAAGGUCACUAGAGGGGAGGGCCAGGCCAGCAACAGAGGAUUGAGCAUCA
B8: chr4:48850422:48850423:+_ENSG00000109180_ENST00000264312|hu_hu|FALSE|FALSE (ssRNA)
RNA: GGGAGUUCUACAGUCCGACGAUCAGCAAGUAUAAGUUUAGGGAUGGAACCAUAUUUGGGAUGACUUGAAAGUAUUCCUUUACUAAUUAAUCCUUGAGUAAUCAACAUACUUGUUGCAGCCAAAGGCACAGAUCUGAACCAGAACAACAGAGGAUUGAGCAUCA
B9: chr12:45383586:45383587:+_ENSMUSG00000036257_ENSMUST00000043082|mus_mus|FALSE|FALSE (ssRNA)
RNA: GGGAGUUCUACAGUCCGACGAUCAAAUAUAUAUAUCUAGAGUCAAAUUAAUAGACAUAACUUAAAAAUCAUUUAUUUUCUAUGUGACAUUCUCUCAUUCCAUUCCUGAAUGCUUCAUUUAGGAAAUUCCAUAAUUCAUGGUCUCAACAGAGGAUUGAGCAUCA
B10: chr9:91931296:91931297:+_ENSG00000123975_ENST00000314355|hu_hu|hu_hu_hu_mus_True|48_98 (ssRNA)
RNA: GGGAGUUCUACAGUCCGACGAUCAGAUUAGAUGAUCCCAGAUAAACUUCAUUUUUGUUGUUCUUUUGGAAGAGGUCGUCUAAAGAGAAGAAUAUGUGGUUCUGGCUCAUGAAUCAUGUAAUGAACCCAUCCUAGACUCUGUUGCAACAGAGGAUUGAGCAUCA
B11: chr6:86333760:86333761:-_ENSG00000135316_ENST00000355238|hu_mus|hu_hu_hu_mus_True|18_108 (ssRNA)
RNA: GGGAGUUCUACAGUCCGACGAUCUUCUUCAAGAAUCUGCUCCUUGGUUUUACUCUUAGGAAUCGAGCCCACAAAAAGCCUAUUGUUGGCAACUGAGAUGCAGACACCAAUGUGCUUUCCAGAACGAAUUUCAUGAUUAUUAUACAACAGAGGAUUGAGCAUCA
B12: chr3:176767854:176767855:-_ENSG00000177565_ENST00000430069|hu_mus|FALSE|FALSE (ssRNA)
RNA: GGGAGUUCUACAGUCCGACGAUCGACAUCCUUGUUACUGGGCACGUCCUGCCCUCCUUCCCGUAUGCAGUGUCUAAGCACGAGCUGCGUAGGGCCACUCGUGCUGUUCUCACUGAGGUUCCAGAUUCUUGCCGUGGAGUCUCCCAACAGAGGAUUGAGCAUCA
B13: 160131333_160132206_1458_CDS_ENSG00000113810_ENST00000344722|human|control|control (ssRNA)
RNA: GGGAGUUCUACAGUCCGACGAUCUGUAAAUUUUUCUUUAUUCUCCUCAAUAAAUUUUGUAAUUUUAUUCAGUUUCUUUUCUGUAUCUUUUACAUCUUUAUUCUUAGCUUUCAUUUCAUUUGAUAGUAUAUUGCUCUUCUCAUUCAACAGAGGAUUGAGCAUCA
B14: chr5:92386950:92386951:-_ENSMUSG00000029397_ENSMUST00000031345|mus_mus|motif|central (ssRNA)
RNA: GGGAGUUCUACAGUCCGACGAUCCUGCUGGGCAUGUUGGAGUUUUUCACAGUUGAUGCACUGCACUUCCUUGACUUUGAAACGAUCGGGCUGAUGAUCUUCAUUGGUAUCGUGACACAGCCGGCAGGUAUAAAGCUUGUCACACAACAGAGGAUUGAGCAUCA
B15: chr1:58468927:58468928:-_ENSMUSG00000026034_ENSMUST00000148330|mus_mus|mus_mus_mus_hu_False|1_108 (ssRNA)
RNA: GGGAGUUCUACAGUCCGACGAUCAAUCUAUAAUUACGAUGUUCAUUACCUUAGCUAUGUACUUAAUGAACCAAAUUACCCAAACAAAAUAAACAUGGCAAUAUAAAAAUGUUAAGAAUUUACAAAGCUGUACAAAAAGACUGACAACAGAGGAUUGAGCAUCA
B16: chr19:60013232:60013233:-_ENSMUSG00000040022_ENSMUST00000171986|mus_mus|FALSE|FALSE (ssRNA)
RNA: GGGAGUUCUACAGUCCGACGAUCCUUAUCUUUUAAUUUUGCAAAAGGUGAUCUCGUCUUGUCCUUCAUUGACAAGUCAAACAUGCUUGCUGUCAUGUUGUUCCUCAUAAAUUGAAUAUUGACCUUUAUCUCACCCCUGUUUUUCAACAGAGGAUUGAGCAUCA
B17: chr6:41757443:41757444:+_ENSG00000214736_ENST00000398881|hu_mus|hu_hu_hu_mus_False|38_58 (ssRNA)
RNA: GGGAGUUCUACAGUCCGACGAUCGAACCGUGCAGAGGCAACAUCUCAGCCGACACUGGGGGAUGGGGGGGCAGUGGGAAACUAGGCAGGCAAGGAGAAGAAAAGUGCUUCAGCUGCCACUCAGGUAGGAUCUUGUGGUCACAGCAACAGAGGAUUGAGCAUCA
B18: chr12:42180722:42180723:-_ENSMUSG00000036295_ENSMUST00000043884|mus_hu|mus_mus_mus_hu_True|38_38 (ssRNA)
RNA: GGGAGUUCUACAGUCCGACGAUCCUGUAGGAGAAGAAUCUGUGUGUUAGCUGGCAAUCUGGCUGGGAAAGUUAAAAGACCUAAAUCAUUACAAUCCACUGUCGAUGCUUCCAUAUAAAUGGAUCUGGGUGUAAACCAAGGCCUCAACAGAGGAUUGAGCAUCA
B19: 42054337_42054457_7581_CDS_ENSG00000174197_ENST00000570161|human|control|control (ssRNA)
RNA: GGGAGUUCUACAGUCCGACGAUCCUGUUUGCUAAUUCUGGGAGAUAUGUCAAACUCAUCUGAUCCCAUCUUCUUUUUUCUUUUUUGUGCCUCUAGUGCUUGCUGUUUUGCAUAAAUAUACUCUAGCUUCUUCAGGACCACUUCCAACAGAGGAUUGAGCAUCA
B20: chr4:114257803:114257804:+_ENSG00000145362_ENST00000514960|hu_hu|FALSE|FALSE (ssRNA)
RNA: GGGAGUUCUACAGUCCGACGAUCGGAAUGGUCAUGGUAAUUGGUUUGUGGAAUUUUCUUCUUCUAGGUUCCAAAGUGACUAUAGGGCUGAAGGUAGCUUUGUUGCCUAGGAUCUUCUUAACCAGCUCACUGUGCAUAGGUUGACAACAGAGGAUUGAGCAUCA
B21: 29884779_29884899_2625_CDS_ENSMUSG00000074909_ENSMUST00000099525|mouse|control|control (ssRNA)
RNA: GGGAGUUCUACAGUCCGACGAUCUGGCCAUGGCCUACUUGAACAAAUUAGAUUUACAAUUAGUGGGAGUAGCUGCUCAAACCAUGGCAAAAUUUUUUCCUUGUAAGUACUAAAUAAUGAGUGCAAAAUAUCUGAUACUUUGGUCAACAGAGGAUUGAGCAUCA
B22: 22825274_22838584_225_3pUTR_ENSMUSG00000036782_ENSMUST00000035973|mouse|control|control (ssRNA)
RNA: GGGAGUUCUACAGUCCGACGAUCCAUCAUGACUCUGUGCACAGGGUAAGCAUCAUCUGUAUCACCUGGCAUCAGUGUCACAUCACAAAGCAAUCCAUCAAGCCGAAGCUGGUCAAAGCCCUGUAACACCACAGAACUGUGGCUCAACAGAGGAUUGAGCAUCA

In the experiment the target is T1, UNK ZnF1-3 (human, UniProt Q9C0B0 31-174).
T1 sequence: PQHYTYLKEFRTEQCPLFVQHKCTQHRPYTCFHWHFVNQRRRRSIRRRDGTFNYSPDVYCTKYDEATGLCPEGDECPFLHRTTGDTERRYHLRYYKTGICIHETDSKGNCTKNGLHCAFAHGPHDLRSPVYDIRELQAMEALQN
The experiment in a line: nsRBNS (natural sequence RNA bind-n-seq); RBNS binding buffer (assumed for nsRBNS): 25 mM Tris pH 7.5, 150 mM KCl, 3 mM MgCl2, 0.01% Triton X-100, 500 ug/ml BSA, 20 U/ml SUPERase-In, 4 C; UNK is unkempt and MSI1 is Musashi-1; names of the RNAs are library labels; protein concentration not given here; high values mean tight binding.
Molecule B1 returned a binding signal of 0.654 enrichment R. B2: the binding signal was found to be 1.15 enrichment R. The same measure for B3: 1.87 enrichment R; for B4: 1.48 enrichment R; for B5: 1.02 enrichment R. On to B6, for which the binding signal came out at 1.99 enrichment R. The same measure for B7: 0.908 enrichment R; for B8: 1.91 enrichment R. With B9 the figure was 0.667 enrichment R; with B10, 1.03 enrichment R. On to B11, for which the binding signal was 1.55 enrichment R. Consider B12, for which the binding signal was 0.402 enrichment R. With B13 the figure was 0.34 enrichment R; with B14, 0.681 enrichment R. For B15, the binding signal was found to be 0.937 enrichment R.

For B16, the binding signal is 0.57 enrichment R. For B17, the binding signal turned out to be 1.79 enrichment R.

Molecule B18 gave a binding signal of 1.36 enrichment R. With B19 the figure was 0.45 enrichment R; with B20, 0.595 enrichment R.

B21 returned a binding signal of 1.51 enrichment R. The same measure for B22: 1.12 enrichment R.
